# Measured values: the RNAGym collection of RNA variant scans (doi:10.1093/nar/gkz1192)
# The source gives no read counts; variants with many changes may rest on few reads.
# B1: CPEB3 Ribozyme (parent)
# chain: UAACAGGGGGCCACAGCAGAAGCGUUCACGUCGCAGCCCCUGUCAGAUUCUGGUGAAUCUGCGAAUUCUGCUGUAUAUCUC
# Variants of: B1
# Assay: self-cleavage, relative activity (ratio to wild type); higher = more cleavage; in vitro, sequencing
# Method in brief: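 After error-prone PCR and barcoding, CPEB3 ribozyme mutant libraries were transcribed with T7 RNA polymerase at 37°C for 5 hours, then given 15 min with DNase I before an EDTA stop, and they cleaved during both steps. Reverse transcription with template switching preceded Illumina sequencing. Relative activity divides a variant's cleaved/total read fraction by the unmutated ribozyme's. At least 5 reads were required per variant, and three batches were averaged.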
row,Variant,self-cleavage
1,A3U U54C A65G,0.31
2,A3U U49A U67C,0.29
3,C4A G10A C29G U49A U51C U58A U66C,0.05
4,A5C A35G A47U U60C A77U,0.14
5,C4U G30C U60C U74A,0.2
6,C4U G10A C40A U60A C71U U74C,0.06
7,A3U A13U U43C U51C,0.99
8,C4G C12G U25G U41C A57G,0.11
9,A3U U25C C32U U43C U69A,0.03
10,C4G C11U A18G A20G C59U,0.1
11,A5C A28G U76C,0.67
12,A5C C37G A45G U49C U54C,0.29
13,A5G A15G A45G U48C U49C,0.17
14,C4U U25A U41C U80C,0.18
15,A3U A15G U43C U54C,0.31
16,A3U C4U U49C U69A U72A,0.13
17,A5G A15G C39A A47G U60A U66C A77U,0.19
18,C4G A56G A64G,1.05
19,C4A C29U U41C U54C U60C,0.2
20,A3U A18U A21U A64U,0.08
21,C4U A21G C27A U60C U69A,0.11
22,A5G A15U A28U U60C,0.31
23,A3U A20G U48C,0.53
24,A3U C32A A57G U72A,0.16

row,Variant,self-cleavage
1,A5C G36U U41A A47G,0.13
2,C4U A15G C40A A45G,0.37
3,A5C A15G U60C U78A,0.33
4,C4A U31A C40G U49C,0.16
5,C4U A15G G16U U66C,0.36
6,C4A U26A A47U,0.53
7,A3U U48C A64G G70A U78C,0.12
8,A3U G42A A47G U48A U72C U78C,0.07
9,C4U G7U A35G U43C U51C U58C,0.22
10,A3U A15G A75G,1.21
11,A3U A35U U43A U80C,0.62
12,A3U C68U U69C U72C,0.29
13,C4G A5G U26C U58C,0.09
14,A5C U41A U67A,0.12
15,C4U C27U A56U U72C U80A,0.18
16,A3U U26C C40U,0.43
17,C4G A21G U31A A45U U80C,0.11
18,A5G A13U A20U G53A,0.37
19,A3U A28G U54C U67C U72A,0.17
20,A5C G6C C12U A21G U78C C81U,0.1
21,A5C U41A U43C U60C A75U,0.08
22,A5C A15G A20U U41C U51C A57G A75G,0.23
23,C4U A18U U69C,0.55
24,A5G A15G A18C A28G A75G,0

row,Variant,self-cleavage
1,A5C A13G A28C U48C,0.19
2,A3U G8A G10A C11G C34G U80A,0.02
3,A5G A13U U25A G36A A64U,0.24
4,A5G A13G U80A,0.57
5,A5C A18G G36C,0.33
6,C4G A5U U43C U54C G63U,0.64
7,A5G A13U A21G U31C A45U,0.7
8,A3U C4A A47G U54A,1.18
9,A3U C27A C38A G42A,0.33
10,A3U A21G U25C U26A A35G U76C,0.6
11,A5C U54C A64G U80G,1
12,A3U A18G G24U U43C U48C U58C U72G,0.3
13,A3U G9A G30A U43A U72A A77G,0.05
14,A3U A18G G24A U26C U54C A56G,0.17
15,A5G A13U G30U U58C U78C,0.21
16,C4G U41C U43C,0.64
17,A3U U26C U43C,0.65
18,C4A A13G C17G U51A,0.59
19,C4G A18G C40U U43C,0.24
20,A3U A20G U67C A77U,1.05
21,A3U A18U U26A A28U A35G U60A,0.27
22,C4U A15G A56G,1.12
23,C4U U26A U49C U51C,0.45
24,A3U C32U A35U U54C U60C U72A U74C,0.08

row,Variant,self-cleavage
1,A3U U26A G53U U58C,0.41
2,A5G A15G G16A U31C U43A,0.12
3,A5C G9A A18U A45G A64U,0.04
4,A3U A15G C50G,0.64
5,A5G A15G A20U A47U,0.41
6,A5C G10A U26C C50U A57G U80A,0.08
7,A3U C34G C39U,0.32
8,C4U U41C U43C C50U U51C U54C A77U,0.58
9,A3U G8U U31A U67A,0.2
10,A5C A21U U69C,0.44
11,A5G A13G U31C A75G,0.19
12,A5C A47G U58C A77G,0.81
13,C4U A21G A45C A64G,0.16
14,C4U C23U U43C U76C,0.15
15,A5G A13G A45U G55A U78C,0.34
16,C4U G19C U25C G30C U31C A75G,0.08
17,A5C A15G G55C A64G U72C,1.07
18,A5C G10A U41A A47G,0.06
19,A5G A18C U66C G70U,0.03
20,A5C A13G A15G A18G A57U,0
21,A5G A15U A18G,0.23
22,A5G A13U C23A C38G U41G U51C A77G,0.11
23,A3U A18G A65U,0.72
24,A5C A15G A47G,1.14

row,Variant,self-cleavage
1,A5C U41C A45G U51A,0.33
2,A5G A13U A28C U66C,0
3,A5G A13G A18C U25C A57G A77G,0.24
4,C4U U31A U43C U72A,0.38
5,A5G A13G U48C U60A A64U,0.08
6,A5G A15G U51C,0.63
7,C4A G33U A57G,0.15
8,A3U U60G U72A U78A,0.32
9,C4U A20G A35G A64U A75G,0.51
10,A3U C32U U51C A57G A64G,0.07
11,A5G A13G A21G U60C A77G,0.36
12,C4G A5U C14A U43A A45U,0.96
13,A5G A15G A28G G55U A56U U69C,0.34
14,C4A U26A A35U A65G U66C,0.19
15,A3U U43A A57G U72A,0.66
16,A3U A18G C23U G46A,0.28
17,C4U A21G U67C,0.34
18,C4U A35G C37A U66C A75G,0.28
19,A5G A15U A20U U80C,0.44
20,A5G A15C A18G A21G U26C U51A U78G,0.63
21,A3U A15C A20G U25C A64G,0.09
22,A5C A20G G36U A45G,0.13
23,A5C A15U A18G U25C A47U U69A,0.07
24,A3U C12U U25C C32U A45U A47U A65U,0.06

row,Variant,self-cleavage
1,A3U U41A G46A U51C G63A A65U,0.1
2,A5G A15G A18G A75G U78C,0.14
3,C4U U41C G53A,1.16
4,A3U A28G U72C U74C,0.96
5,A5G A15C A35G U41C G73A,1.08
6,A3U A35C U41C G55C U72G,0.54
7,A5C U25C U26C G63C,0.37
8,A3U U60A U69C U78C,0.49
9,A3U A15G C23G A28U,0.18
10,A3U G16A A20U G42U,0.05
11,A5G A13G A45G A65G U72A,0.24
12,A5C A28U A64U U78C,0
13,A3U A18U C34U,0.25
14,A3U A57G U80A,1.2
15,A5G A15G A35U G61C U69C U74C A75G,0.16
16,A5C A13G U54C U60C,0
17,A5G A15G U49C U60C,0.2
18,C4U C11U A15G A56G U58A,0.25
19,A3U G30A A35U U54A,0.22
20,A3U U66C U80C,0.55
21,A5C A15C A18G A28U A35G U60C,0.34
22,A5G A13U U49C,0.33
23,A3U A15G U26C A35G A47G U49C,0.04
24,C4U A35G U41C U78A,1.24

row,Variant,self-cleavage
1,A3U C12G C14U U66C,0.29
2,C4G A35G U43C U54C C68U,1.11
3,C4U G9A U41A A57G U66A,0.08
4,A3U G24A C27U U41C A45G U69A,0.05
5,C4U G7A C12A A15C G19A U41C U72A,0.06
6,A3U U31C U69A,0.29
7,A3U G7U A35C U51C U58C,0.32
8,A5C U25C A35G U58C,0.67
9,A5C A18U G24U,0.35
10,A5G A15G C37U U41A G53U,0.52
11,A3U U41A U66G,0.34
12,A3U U25C A57G,0.37
13,A3U U26A U76C U78C,1.09
14,A3U U26C A64G,0.67
15,A5G A15U U41C U48C U60A U72G,0.2
16,A5G A13G G33C,0.5
17,A5C A13U U31C G33U U48C U58A U72C,0.06
18,A3U C12U A45U U67C U76A,0.32
19,A3U G6U A18G U43A,0.1
20,C4U A28G A35G G42A A65G,0.29
21,C4U G8C A28G,0.09
22,A3U G24A U41A U67A G73U,0.09
23,A3U C23U C37A A65G,0.12
